# Test results as given in the supplement of paper PMC11417369.
# ± gives the standard deviation of the averaged measurements. The list shows a part of the results.
# Tested on: PfAP2-EXP AP2 domain (GST-tagged)
# Experiment: gcPBM binding intensity (ln(normalized median fluorescence intensity)); higher = stronger DNA binding
# Method in brief: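 Each value is the highest Masliner-normalised natural-log median intensity across replicate spots of either orientation of a probe. The probes were primer-extended double-stranded 36-bp intergenic genomic sequences on an Agilent 4 × 180k array, alongside negative controls, exposed for 1 h to GST-tagged P. falciparum DNA-binding domains expressed in E. coli. Bound protein was picked up with Alexa488 anti-GST antibody and scanned at 488 nm.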
row,Sequence,gcPBM binding intensity (ln)
1,ACCATTTGTAGGTAAACACACATTATTATTAATATC [CACACA_site2635],8.48 ± 0.33
2,TAAAATGCAATCTGAACACACATATTTTTTTAATAT [CACACA_site6922],8.18 ± 0.45
3,TACATCATACGAACAGTGCATATTATTATTGTTCTG,8.36 ± 0.15
4,TACTTACCAAAATACACACACACACTAGATATATAA [CACACA_site5096],8.79 ± 0.49
5,TATATATCATATGATACATGCAACAAAATGCATAAT [TGCATGCA_site205],8.89 ± 0.23
6,ATGTATATTACTCATTGTACTTATATTTTCTTATTA [XGTACX_site8897],8.6 ± 0.33
7,GTATTTATAAATTATAGTACTTTGCGTATCATATAT [XGTACX_site7358],8.86 ± 0.51
8,ATTTTATATCTGGATAGTACTTTAATATTTCAAATG [XGTACX_site7304],8.54 ± 0.29
9,GGATATTCATTAACCACACACACAAAAAAAATAAAA [CACACA_site3800],8.74 ± 0.46
10,TTATATTATACATACACACCCATATAATATGTTTTT [CACACA_site4636],8.73 ± 0.42
11,AGCTACACACCACAATGTACATAAATATATATGTGA [XGTACX_site1483],8.59 ± 0.45
12,TTGTTTTTGTTCTTGGGTACTTAAATTATAAATGAT [XGTACX_site113],8.88 ± 0.45
13,TCTTATGAATATCCCCGTACACATATATTTCTTATA [XGTACX_site6877],8.81 ± 0.38
14,TATTGTATATACTATACACACACATACATACATACA [CACACA_site8172],9.26 ± 0.17
15,AGAATATTTAATTCAACACACATACATATTTATTAA [CACACA_site5318],8.21 ± 0.38
16,GAAGCCCTATGAAAAGTGCGGTTCATGAACAAAGAA [GTGCAC_site9828],8.99 ± 0.41
17,TACTTTATATAAAGATCAAAAAATAAATAATTATAA [TGCATGCA_negctrl_site446],8.45 ± 0.21
18,GGATAATATATTAGAACACACATATAGATGTAAAAA [CACACA_site6229],8.57 ± 0.54
19,ATATATTTATATAAATGTACATACAGCACATTTATA [XGTACX_site4725],8.44 ± 0.4
20,CAAATATACATATGTAGTACATGTTGTAGATAATTT [XGTACX_site2790],8.66 ± 0.33
21,ATAAGGAAGGGATGCACACAAAAGGGTACATAAGAA [CACACA_site4006],8.93 ± 0.35
22,TTTGAATCCTTATATACACACATTATAAAATATTAT [CACACA_site6406],8.49 ± 0.39
23,TATTTGTAAATCGATACACACATATAGATTAATATA [CACACA_site6237],8.46 ± 0.5

row,Sequence,gcPBM binding intensity (ln)
1,CGTATATGACAAAAGCGTACGCATCAGCAGAAAAAT [XGTACX_site6248],9.29 ± 0.5
2,ATATATATATATATATGTACTGAATAAAGAACAAAA [XGTACX_site5400],10.1 ± 0.42
3,AAAAAAAATGATAATATACACACTTATGGGAGAGCG [CACACA_site2516],8.4 ± 0.28
4,AGAAATAAGAAATATACACACATATAAATATAAATA [CACACA_site7342],8.52 ± 0.55
5,TAAAAAAAAACATATACACACAAAAACGTACACATA [CACACA_site1354],8.86 ± 0.36
6,TTTTTTTCTCACAATCGTACATAAATACATATATAT [XGTACX_site3150],8.67 ± 0.26
7,AGAATATGTTAAAAAAGTACATACTCTTTATATACG [XGTACX_site79],8.35 ± 0.29
8,AGGGGAAATAAAATATAAATTATCATATATATATAT [XGTACX_negctrl_site366],9.94 ± 0.21
9,TAATGTACATAAACCGCACACATATAAAAAAATAAA [CACACA_site2851],8.74 ± 0.52
10,TATATTTTTTAAACCACACACAATATAGAGTAGAAT [CACACA_site613],8.83 ± 0.35
11,TGTATATATAAACATGCACACGTGGTTGTATATATA [CACACA_site9078],8.54 ± 0.2
12,TAGTATTAAAATATTTGTACTTATATGTATTATATA [XGTACX_site538],8.25 ± 0.37
13,TGTAGTCTGGAGAAGAGTACACAGTATCTGGTAACA [XGTACX_site2038],8.41 ± 0.31
14,AATATTTTAAAAAAAAGTACATTATATATATATGTT [XGTACX_site8073],8.45 ± 0.29
15,AGAATTCGTTTAAAAAGTACATTCAATTTAATAATG [XGTACX_site6603],8.22 ± 0.31
16,AATAAAAAGGAACACACACACACACGGATATAAATA [CACACA_site7658],8.97 ± 0.47
17,TATTTTACATCTTCTCACATTTTATCACTTTTTAAA [CACACA_negctrl_site330],8.76 ± 0.41
18,TCTTTGTAAATTTCTTGTACGTAAATTTTTTTTAGG [XGTACX_site7062],8.8 ± 0.52
19,TCATAGTATAGACACACACACACACGCATATAAATA [CACACA_site6915],8.79 ± 0.57
20,ATAGACAGCGCACAAACACACAAACACAGACCCCCA [CACACA_site4409],9.51 ± 0.48
21,TTATTTTTGTTCATAGTGCATAGAATTTATACATAT,8.77 ± 0.2
22,TTTTTTTTATGGTACACACACGCGTATGGTTGCACG [CACACA_site1877],8.71 ± 0.43
23,TTTTTTTCTTTTCAAACACACAATTGGTATATATCA [CACACA_site7542],8.62 ± 0.39

row,Sequence,gcPBM binding intensity (ln)
1,TTGTAAATTTCTGGTTATATATTTTATGTATATGTT [CACACA_negctrl_site1443],8.6 ± 0.35
2,ATTTATTTATTGGCACGTACAAATTTGTGTTTTCCA [XGTACX_site6978],9.02 ± 0.42
3,ATAAAGGAAATTACAAGTACAAATAAGATAAAATAA [XGTACX_site4514],8.84 ± 0.46
4,AATTATATATTATAATGTACATATATATAACTATAC [XGTACX_site1865],8.45 ± 0.26
5,AAAGAAATGAAATATACACACATACATAAATACATA [CACACA_site6081],8.76 ± 0.39
6,TATAAAAAAAGAGGAGGGATGGTATACTTGTGGTTT [TGCATGCA_negctrl_site49],8.55 ± 0.66
7,ATATATTTAAACTACACACGCATATCTTAGAAATAA [CACACA_site1272],8.53 ± 0.42
8,AAAAAAAAAAAATATGTACACACATATATAATACAT [CACACA_site8473],8.5 ± 0.4
9,TATATGTTTGAATATACACACAACATATTTATATAT [CACACA_site7832],8.26 ± 0.41
10,TTTTTTGTTAAAAGAGTGCAAATTTTTAAAGATTTG [GTGCAC_site9502],8.44
11,AAAAAAAAAAAAAAATACAAGCACATTTATATAAGC [GTGCAC_negctrl_site695],8.47 ± 0.4
12,AGTAATATAATATAAGCACACGTGTATTTATTTAGG [CACACA_site7921],8.58 ± 0.27
13,TATATATCAATATTTACACACATGCGCCCACATAAA [CACACA_site7185],8.84 ± 0.41
14,AAATACATTAAAATGACATGCAGATATATATCAAAA [TGCATGCA_site477],9.04 ± 0.32
15,TGAATAAAGATATATACACACATATAGGTATATATC [CACACA_site6870],8.43 ± 0.35
16,AAAAAAAAAAGACACACACACACAAATACATACACA [CACACA_site6472],8.61 ± 0.47
17,ATCTAAATAAAGTTAACACACACATAATATATATAT [CACACA_site8055],9.59 ± 0.071
18,TGCTTATATTTTTATACACACAAGATACTTTTTGTT [CACACA_site1535],8.55 ± 0.36
19,CTATGCCCCATATAAACACACAAATAAAAAGAATAT [CACACA_site2681],8.81 ± 0.57
20,TTTTTTTCTTTTGGGAGTACCAACATTTTCACATAT [XGTACX_site1371],8.78 ± 0.41
21,TGCAATGGAGCATAAAGTACATATAATTGTATTTTT [XGTACX_site7349],8.41 ± 0.44
22,TAGAATAATCCTTACACACACACACCCACGAATAAA [CACACA_site483],8.82 ± 0.63
23,AATACAGAGGAAAATACACACGTATATATATAAATA [CACACA_site9125],8.73 ± 0.44

row,Sequence,gcPBM binding intensity (ln)
1,TTTTAAAAAAAAAAAAAAAAAAAAAAAAAAAAAAAA [CACACA_negctrl_site1343],7.76 ± 0.21
2,TGTTTTTTTATTTTCACACATAATCCAATTATACAT [CACACA_site6070],8.91 ± 0.41
3,TTTTAAAATTATTAGGTGCATATTTATTCTATATTT,8.45 ± 0.23
4,CAACACTTAGATTTTAAGTTCACTGGTTAATATATA [CACACA_negctrl_site707],8.12 ± 0.4
5,AATAAAAATAATATAGTGCATAATATAAGGAAAAAA,9.07 ± 0.071
6,TTAAAAAAATATAGAGCATGCTAAAAATAAAAAAAT [TGCATGCA_site794],9.12 ± 0.49
7,GTTATACTCATCAACACACACATACAACGTGGTGTA [CACACA_site4789],8.41 ± 0.67
8,AGGTCTATATAATAAGTGCATTTTTTTTTTTTTTTT [GTGCAC_site9664],8.565 ± 0.064
9,GCATCTCATTTGTGATGTACTATATTATCCGTTTTT [XGTACX_site7576],8.59 ± 0.37
10,TTTCTATATCTATTTAATTAACTTTTTATACTGATT [GTGCAC_negctrl_site415],8.55 ± 0.43
11,ATCAACAAAACATACACACACATATATATATATATA [CACACA_site2989],10.2 ± 0.46
12,CATATCATTGATTATAGTACACATACCATTTTTTAT [XGTACX_site6572],8.66 ± 0.38
13,CACATAAAAAAATAAACACACATATGTATTTATATA [CACACA_site5718],8.22 ± 0.38
14,ATTTATATTACAAAAAGTACACACATAAATAAATAC [XGTACX_site1827],8.97 ± 0.29
15,TATATATATTATATATGTACATATATTTTTTTTTTT [XGTACX_site127],8.69 ± 0.19
16,ATATATATATATATAACACACGTGTATATATATGTA [CACACA_site3644],10.2 ± 0.23
17,TATTAATCATATAAATGTACGTATATATATTTTTCT [XGTACX_site1421],8.43 ± 0.35
18,AAAAAAAAAAAATATATATATATATATATATATATA [CACACA_negctrl_site1606],10.3 ± 0.21
19,CAATCATAGAAAAACAGTACGTGTAGCAAACATCCT [XGTACX_site4889],8.61 ± 0.62
20,TATAATATATTATAACGTACAAATATATATATAAAA [XGTACX_site6581],8.6 ± 0.49
